Over roughly 33,000 sequences, “E-score (-0.5 to 0.5)” has its median near -0.043; the highest 2% begin near 0.37. Some of the results follow.
Molecular target: T1, Upc2 (UniProt Q12151)
T1 sequence: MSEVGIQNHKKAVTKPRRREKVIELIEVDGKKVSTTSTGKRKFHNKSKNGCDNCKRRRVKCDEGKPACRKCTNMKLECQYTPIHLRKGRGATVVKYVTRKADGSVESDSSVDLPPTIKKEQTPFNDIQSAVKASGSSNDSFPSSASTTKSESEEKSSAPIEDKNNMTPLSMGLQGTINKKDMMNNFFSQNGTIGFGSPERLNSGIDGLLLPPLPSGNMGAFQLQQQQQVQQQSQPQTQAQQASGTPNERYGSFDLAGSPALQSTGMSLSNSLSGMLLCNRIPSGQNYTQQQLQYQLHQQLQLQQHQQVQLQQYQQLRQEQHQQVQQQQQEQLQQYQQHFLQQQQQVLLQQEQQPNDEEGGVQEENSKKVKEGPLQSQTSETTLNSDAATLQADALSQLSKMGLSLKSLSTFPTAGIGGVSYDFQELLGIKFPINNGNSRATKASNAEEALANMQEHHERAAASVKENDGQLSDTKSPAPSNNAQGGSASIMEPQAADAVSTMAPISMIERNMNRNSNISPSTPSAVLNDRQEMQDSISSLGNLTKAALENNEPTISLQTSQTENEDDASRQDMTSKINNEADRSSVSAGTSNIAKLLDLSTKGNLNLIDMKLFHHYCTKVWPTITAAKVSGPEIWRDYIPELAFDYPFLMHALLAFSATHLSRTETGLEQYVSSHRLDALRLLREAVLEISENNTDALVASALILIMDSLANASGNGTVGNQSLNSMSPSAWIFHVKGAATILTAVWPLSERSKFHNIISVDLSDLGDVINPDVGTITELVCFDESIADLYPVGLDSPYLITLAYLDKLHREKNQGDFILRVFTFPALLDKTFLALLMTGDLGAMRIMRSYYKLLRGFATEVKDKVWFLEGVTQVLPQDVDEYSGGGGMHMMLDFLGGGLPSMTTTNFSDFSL
Experiment: PBM E-score (8-mer binding enrichment) (E-score (-0.5 to 0.5)); higher = stronger / more preferred TF binding; most listed sequences are background and not binding sites
Settings: protein concentration: 200 nM; construct: GST-full length
Procedure, shortened: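 Bound GST-tagged yeast transcription factors, applied at about 100-200 nM to double-stranded universal all-10-mer Agilent arrays, were detected with fluorescent anti-GST. Scans were normalised with masliner. A modified Wilcoxon-Mann-Whitney statistic, the E-score, was assigned to each ungapped eight-base word pooled with its reverse complement by the Universal PBM Analysis Suite.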

Sequence	PBM E-score
AAGGTGGA	-0.0852
AATGGCGC	-0.0285
ATCCTGAA	0.109
AGACATCG	-0.0296
CGATTACA	0.185
ATGCCAAA	-0.128
ATCGTAAA	0.448
GGCGTGTA	-0.0443
CTGGGTGA	-0.138
GCAACGCA	-0.149
ACGTAGCT	0.162
GCAGCGCC	-0.0761
CGGTGTCC	-0.00807
ACTTTTTA	-0.00986
AAGATAAC	-0.0856
TGCCCTAA	-0.116
AGCTGATA	0.0372
AAAAAGAC	-0.0486
TCAGACGA	0.171
CTAAGTAC	0.152
AAGAGGAC	-0.242
CACATCAC	-0.144

Sequence	PBM E-score
GCATAAAC	0.232
CACTAAGA	-0.1
CGGGCCAA	-0.307
ATCCTGTC	0.125
ATAGCTCA	-0.134
AACATAGT	0.0732
GACATTGC	-0.342
ATATTTAA	0.14
ATGGTCCC	-0.219
CGGTACTC	0.0294
TCACCCGA	0.00062
AGAGCAAT	-0.0953
AAGAGCGG	-0.0495
CACCTTTC	-0.0421
ACCTTCGG	0.122
CCATATTC	0.124
ATCAGCCC	-0.226
CAATGTCC	-0.269
CCCCACCC	0.0563
CCCTACGC	-0.209
CTTCAGAA	-0.0849
GCCTGAAC	-0.15

Sequence	PBM E-score
GGGCCACC	-0.16
GTGTTTCA	-0.0708
AAAGGAAA	0.118
ATGTAACA	-0.0483
CTCGGCGA	0.126
GCTATAAC	-0.153
AGGAAGGC	-0.0345
GATCCTCC	-0.157
ACTCTAAT	-0.125
GCAGCAAA	-0.0889
ACTCCAAC	-0.199
CGGGGGGC	0.063
GGGCCCAA	-0.193
CACGTGTC	-0.0686
GGGATTGA	-0.205
AAATCTAA	-0.16
AGTTTTGA	-0.0786
CGGTATAC	0.36
GGTATGCA	-0.00862
GGCTCGAC	-0.201
GCCTCACC	-0.123
CAGTATGC	-0.154

Sequence	PBM E-score
TATCTCGA	0.0274
AGTGTAAA	0.0185
CGCTTGGA	-0.0625
AGAGGCCT	-0.0685
ATCGATGG	0.111
AAGGTTGC	-0.298
GTGCCAGA	-0.18
AAAGAGCA	0.0939
GTTGCTCA	0.0744
GAGTTTCC	-0.128
CGGGACAG	0.148
AGCGCCAA	-0.318
GTTACCAA	0.138
ACAGAGTC	0.0223
ACTCACCT	-0.23
GTACGAAA	0.442
ACTCTAGG	-0.216
GAACTATA	0.0178
CCGAGAGA	-0.033
CGGACAGC	-0.0574

Reference: the supplement of paper PMC3334620
